The campaign covered roughly 110,000 compounds. About 40 (0.04%) were called active. Inconclusive means that the source gave no clear call. Such entries were picked first, then a sample of the others. Calls follow the shape of the dose curve; as a rule, active = well fitted curve in the direction sought with a large enough effect in the signal ratio (not every such curve was filed as active); inconclusive = small, poorly fitted or top-dose-only effect, or a change in a side signal; inactive = flat fitted curve, though single readings scatter; the % refers to the signal ratio. Potencies of inconclusive entries are doubtful fits and often do not repeat.
Experiment: IkB Signaling;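 as to IkBa stabilization activation: 0% = basal untreated cells and 100% = reference inhibitor full response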
Settings: ABC-DLBCL IkBa-CBG/CBR dual luciferase ratio (green luciferase fused to IkBa over red control in OCI-Ly3 lymphoma cells), 4 h; IkBa stabilization activation: at 57.1 µM (top of the series), scaled: untreated 0%, proteasome inhibitor 100% unless noted
Method in brief: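 Curves were fitted separately to fusion (green), unfused (red) and ratio luminescence, then classed by r2, magnitude and activity. Cells: OCI-Ly3, 4 h compound plus doxycycline at 37C; 10 uM MG-132 defined full response.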
Potency is read from the fitted curve at half-maximal effect.

Row | Compound | IkBa stabilization activation | Potency
1 | CCOC(=O)c1cnc(-n2nc(C)cc2C)nc1Nc1ccc(N(C)C)cc1 | inactive: -2.3% | 
2 | O=C(CN1C(=O)COc2ccc(S(=O)(=O)N3CCOCC3)cc21)N1CCN(c2ccc(Cl)cc2)CC1 | inconclusive: 1.84% [signal inhibitor] | 
3 | O=S(=O)(NCCc1cn2ccsc2n1)c1ccc(Cl)cc1 | inactive: 4.39% | 
4 | OC(CNc1nc2ccccc2s1)c1ccccc1 (stereo not drawn) |  | inconclusive: 3.16 µM [signal inhibitor, full curve]
5 | COc1ccc(Cl)cc1C(=O)NCCc1ccc(S(=O)(=O)NC(=O)NC2CCCCC2)cc1 | inactive | 
6 | CCOC(=O)c1cccc(NC(=O)CC2C(=O)N(c3ccc(F)cc3)C(=O)N2Cc2cccc(OC)c2)c1 (stereo not drawn) | inconclusive: 0.234% [signal inhibitor] | 
7 | CCOC(=O)c1ccc(Nc2nc3ccccc3n3c(C)nnc23)cc1 | inconclusive: 0.201% [signal inhibitor] | 
8 | CC(C)CN(CC(C)C)S(=O)(=O)c1ccc(C(=O)Nc2sc3c(c2C(N)=O)CCN(C(C)C)C3)cc1 | inconclusive: 0.429% [signal inhibitor] | 
9 | CCOCCc1nn2c(=O)cc(COC(=O)c3ccccc3NC(=O)CC(C)C)nc2s1 | inactive: 1.14% | 
10 | CCC(c1nnnn1C1CCCC1)N(Cc1cccs1)Cc1cc2cccc(C)c2[nH]c1=O (stereo not drawn) | inconclusive: 8.64% [signal inhibitor] | 
11 | CCOc1ccc(-c2noc(CSc3nnc(Cc4ccccc4)n3-c3ccc(F)cc3)n2)cc1 | inconclusive: 2.3% [signal inhibitor] | 
12 | Cc1cccc(N2CCN(c3ncnc4c3cnn4-c3ccc(Cl)cc3)CC2C)c1 (stereo not drawn) | inconclusive: -4.96% [signal inhibitor] | 
13 | COc1cccc(C(=O)Nc2c3c(nn2-c2ccc(C)cc2C)CS(=O)(=O)C3)c1OC | inactive: -3.04% | 
14 | COC(=O)Cc1c(C)c2ccc(OCC(C)=O)c(C)c2oc1=O | inactive: -0.961% | 
15 | CCC(=O)Nc1ccccc1C(=O)OCc1cc(=O)n2cc(C)sc2n1 | inconclusive: 8.89% [signal inhibitor] | 
16 | CC(C)CCN1C(=O)c2ccccc2CC1(C)C(=O)NC1CCCCC1 (stereo not drawn) | inconclusive: 3.85% [signal inhibitor] | 
17 | CCN(CC)S(=O)(=O)c1cccc(-c2nnc(SCCOc3ccccc3C)o2)c1 | inconclusive: 1.55% [signal inhibitor] | 
18 | O=C(Nc1nc(-c2cc(Cl)sc2Cl)cs1)c1cccs1 | inconclusive: 1.38% [signal inhibitor] | 
19 | CC1CC(=O)N(CC(=O)Nc2ccc(OC(F)(F)F)cc2)c2ccccc2S1 (stereo not drawn) | inconclusive: 2.47% [signal inhibitor] | 
20 | CCCN1CCN(C(=O)Cn2ncc3c4ccccc4n(Cc4cccc(Cl)c4)c3c2=O)CC1 | inconclusive: 1.26% [signal inhibitor] | 
21 | O=C(Nc1c(C(=O)N2CCN(c3ccccc3)CC2)oc2ccccc12)c1ccccc1F | inconclusive: 0.408% [signal inhibitor] | 
22 | Cc1ccc(CCNC(=O)c2cc3cc(S(=O)(=O)N4CCCCC4)ccc3n2C)cc1 | inconclusive: 0.953% [signal inhibitor] | 
23 | O=[N+]([O-])c1ccc(Cl)c(CNc2ncnc3c2ncn3[C@@H]2CCCCO2)c1 | inactive: 0.834% [at 11.4 µM, scaled: untreated 0%, proteasome inhibitor 100%] | 

Row | Compound | IkBa stabilization activation | Potency
24 | COc1ccc(-c2nc3cnc(N4CCN(C)CC4)nc3n(C)c2=O)cc1 | inactive: -0.516% [at 11.4 µM, scaled: untreated 0%, proteasome inhibitor 100%] | 
25 | COc1cccc(NC(=O)c2ccc3nc(Cc4ccccc4)oc3c2)c1 | inconclusive: 11.9% [signal inhibitor] | 
26 | Cc1ccccc1CNc1ncnc2c1ncn2[C@@H]1O[C@@H](CO)[C@H](O)[C@@H]1O | inconclusive: 2.08% [signal activator] | 
27 | CCc1ccc(-n2c(SCc3cccc(F)c3)nc3[nH]ncc3c2=O)cc1 | inactive: -1.6% | 
28 | O=C(Nc1ccc(N2CCN(C(=O)c3ccccc3)CC2)cc1)c1ccc(Br)o1 | inconclusive: -2.46% [signal inhibitor] | 
29 | CCOC(=O)C1=C(N)OC2=C(C(=O)CC(C)(C)C2)C1c1ccoc1 (stereo not drawn) | inactive: 2.21% | 
30 | COc1ccc(CNC(=O)Cn2nc(C)c3c(C)n(-c4ccccc4)nc3c2=O)cc1OC | inactive: 0.518% | 
31 | O=C(CSc1nc2cc(S(=O)(=O)N3CCOCC3)ccc2o1)NC1CCCc2ccccc21 (stereo not drawn) | inconclusive: 3.28% [signal inhibitor] | 
32 | CCCCc1ccc(NC(=O)C2(C)Cc3ccccc3C(=O)O2)cc1 (stereo not drawn) | inconclusive: -0.0868% [signal inhibitor] | 
33 | Cc1cccc(-c2nc(C(N)=O)c3c(n2)n(-c2ccc4c(c2)OCO4)c(=O)n3C)c1 | inconclusive: 0.166% [signal inhibitor] | 
34 | CCc1ccc(C2CC(=O)Oc3c2c(=O)n(C)c2ccccc32)cc1 (stereo not drawn) | inconclusive: 8.87% [signal inhibitor] | 
35 | Cc1cc(C)cc(NC(=O)Cn2cc(C(=O)c3ccccc3)c(=O)c3ccc(C)nc32)c1 | inactive: 0.595% | 
36 | CCOC(=O)CSc1nc2ccc(NC(=O)COc3ccccc3C)cc2s1 |  | inconclusive: 12.6 µM [signal inhibitor, partial curve]
37 | O=C(Nc1ccc(Cl)cc1)c1cc2c(-c3ccccc3)nn(-c3ccccc3)c2s1 | inconclusive: 6.44% [signal inhibitor] | 
38 | COc1ccc(N2CCN(C(=O)c3ccc4c(Cl)c5c(nc4c3)CCCC5)CC2)cc1 | inactive: 0.102% | 
39 | CCCN(CCC)c1nc2ccccc2nc1C(C#N)C(=O)OCCOC (stereo not drawn) | inactive: 0.189% | 
40 | Cc1ccc2nsnc2c1S(=O)(=O)N1CCCC1 | inactive: -0.19% | 
41 | CCOC(=O)c1c(NC(C)=O)c2c3c(sc2n1Cc1nc(-c2cccc(C)c2)oc1C)CCCC3 | inconclusive: 0.428% [signal inhibitor] | 
42 | CCOc1ccc(-c2cc(C(=O)NCCc3ccc(Cl)cc3)c3ccccc3n2)cc1 | inactive: 1.4% | 
43 | COc1cc(-c2cc(OC)c3c(C)oc(C)c3c(=O)c2)ccc1OC(=O)c1ccccc1F | inconclusive: 0.42% [signal inhibitor] | 
44 | COc1ccccc1C(=O)NC1=NC(c2ccc(Br)cc2)CC(=O)N1 (stereo not drawn) | inconclusive: 3.32% [signal inhibitor] | 
45 | [O-][N+]1=C2CCC/C(=N\O)C2=NC12CCCCC2 | inactive: -1.46% | 
46 | OCCCc1nc2n(n1)C(c1cccc(Cl)c1)C=C(c1ccccc1)N2 (stereo not drawn) | inconclusive: 0.894% [signal inhibitor] | 

Row | Compound | IkBa stabilization activation | Potency
47 | CCCc1cc(C(=O)Nc2c(C)nn(Cc3ccc(Cl)c(Cl)c3)c2C)no1 | inconclusive: -1.68% [signal inhibitor] | 
48 | Nc1n[nH]c(-c2ccccc2)c1-c1ccccc1 | inconclusive: 2.04% [signal inhibitor] | 
49 | Cc1nn(-c2ccccc2)c(OC(=O)C(C)(C)C)c1Sc1ccccc1 | inconclusive: 6.15% [signal inhibitor] | 
50 | O=c1oc2ccccc2cc1-c1cn2cc(Cc3ccccc3F)sc2n1 | inactive: 0.127% | 
51 | Cc1ccc(Cn2c(SCc3ccc(C(=O)NC4CCCC4)cc3)nc3ccncc32)cc1 | inconclusive: 1.59% [signal inhibitor] | 
52 | COC(=O)c1cc(NS(=O)(=O)c2cc(Br)cc3c2N(C(C)=O)CC3)cc(C(=O)OC)c1 | inactive: -0.842% | 
53 | COc1ccc2nc(SCC(N)=O)[nH]c2c1 | inactive: -1.25% | 
54 | Cc1nnc(NC(=O)C(=O)c2cc(C)n(-c3ccc(C)c(C)c3)c2C)s1 | inconclusive: 3.2% [signal inhibitor] | 
55 | Cc1cc(C(=O)CSc2nnc(-c3ccccc3F)o2)c(C)n1Cc1cccs1 | inconclusive: 1.33% [signal inhibitor] | 
56 | Cc1ccc(C(=O)Nc2ccc3oc(-c4ccncc4)nc3c2)c(Cl)c1 | inconclusive: 5.21% [signal inhibitor] | 
57 | Cc1nc2ccc(S(=O)(=O)N(C)CC(=O)N3CCc4ccccc43)cc2s1 | inconclusive: 1.47% [signal inhibitor] | 
58 | Cn1c(=O)oc2cc(S(=O)(=O)N3CCN(C(=O)c4ccco4)CC3)ccc21 |  | inconclusive: 12.6 µM [signal inhibitor, partial curve]
59 | CC1CN(C(=O)c2cccs2)CCN1C(=O)c1cccs1 (stereo not drawn) | inactive: -0.187% | 
60 | N#Cc1c(NC(=O)CS(=O)(=O)c2ccc(Cl)cc2)sc2c1CCCCC2 | inconclusive: -0.0533% [signal inhibitor] | 
61 | COc1ccc(-c2ccc(CCC(=O)O)n2CC(=O)Nc2cccc(C(F)(F)F)c2)cc1 | inconclusive: 1.15% [signal inhibitor] | 
62 | CCOc1ccc(S(=O)(=O)NCCc2sc3nc(-c4ccc(C)cc4)nn3c2C)cc1 | inconclusive: 1.63% [signal activator] | 
63 | Cc1cc(C)cc(-n2ccn(Cc3ccc(F)cc3)c(=O)c2=O)c1 |  | inconclusive: 20 µM [signal inhibitor, partial curve]
64 | CCn1c(SCC(=O)Nc2cccc(OC)c2)nnc1-c1ccc(Cl)cc1 | inconclusive: 4.09% [signal inhibitor] | 
65 | Cc1cccc(C)c1Nc1c(-c2ccc(O)cc2)nc2sccn12 |  | inconclusive: 20 µM [signal inhibitor, partial curve]
66 | COc1ccc(NC(=O)CC2C(=O)N(c3cccc(OC)c3)C(=O)N2Cc2ccc3c(c2)OCO3)cc1 (stereo not drawn) | inconclusive: 2.52% [signal inhibitor] | 
67 | CCOc1ccc(N2C(=O)c3cccnc3C2Nc2ccc(F)cc2)cc1 (stereo not drawn) |  | inconclusive: 6.31 µM [signal inhibitor, partial curve]
68 | Cc1ccc(-c2cn(-c3ccc(Cl)cc3)c(S(=O)(=O)CC(=O)Nc3ccccc3)n2)cc1 | inconclusive: 5.42% [signal inhibitor] | 
